In all, about 33,000 sequences were measured (“E-score (dimensionless, -0.5 to 0.5)”: median about -0.058, highest 2% from about 0.35 on). Some of the results follow.
What follows are sequences tested on MvaT (assay: PBM 8-mer E-score (mean of HK and ME arrays) (E-score (dimensionless, -0.5 to 0.5)); higher = stronger relative binding preference; most listed sequences are background and not binding sites).
Outline: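 Full-length P. aeruginosa MvaT carrying an N-terminal glutathione S-transferase tag was tested by protein binding microarray following a previously described protocol. Two universal double-stranded 60-mer arrays, ME and HK, were used, each with a constant 25-mer primer region and a variable 35-mer region covering all 8-mers. The rank-based E-score is the mean of the two arrays, parsed with a custom script. Its range runs from -0.5 to 0.5 for each 8-mer.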

Going from CAATGGTG to ATGGTTCC, the “PBM 8-mer E-score” value rises from -0.0529 to -0.0171.

Going from GTGGGAGA to CGACCGAG, the “PBM 8-mer E-score” value falls from -0.256 to -0.383.

Going from CAACTTGC to AAAATTGC, the “PBM 8-mer E-score” value rises from 0.151 to 0.171.

Compared with AGCTCTGG, CGCGCACA is higher in “PBM 8-mer E-score” value: -0.183 for the first, 0.0234 for the second.

First: AAAATGTC
Second: ATGCTAAC
The “PBM 8-mer E-score” value of the first is lower: 0.0242 for the first, 0.0574 for the second.

First: ACTCCGAC
Second: CTCAGAAG
The “PBM 8-mer E-score” value of the first is lower: -0.0954 for the first, -0.0743 for the second.

Going from ACGGGTGG to CATAACAA, the “PBM 8-mer E-score” value rises from -0.0208 to 0.0795.

First: CCACCTAA
Second: AGACCGCT
The “PBM 8-mer E-score” value of the first is higher: -0.0154 for the first, -0.141 for the second.

Compared with GAAATAGC, CAACCCGG is lower in “PBM 8-mer E-score” value: 0.151 for the first, -0.226 for the second.

First: TGATCAAA
Second: ATAGTAAA
The “PBM 8-mer E-score” value of the first is lower: 0.117 for the first, 0.327 for the second.

Compared with AACCGCCA, CCAGTCAC is lower in “PBM 8-mer E-score” value: -0.0966 for the first, -0.158 for the second.

First: CTGCGGCA
Second: CGTTACCC
The “PBM 8-mer E-score” value of the first is lower: -0.209 for the first, -0.0868 for the second.

Going from ACCCAAGA to AGCGAGCC, the “PBM 8-mer E-score” value falls from -0.0615 to -0.235.

Compared with AGAGAGTC, GACGTACA is higher in “PBM 8-mer E-score” value: -0.186 for the first, 0.034 for the second.

Compared with GTTTCAGA, CCGTCGGC is lower in “PBM 8-mer E-score” value: 0.0751 for the first, -0.287 for the second.

Compared with GGAAGATA, CGCACCTC is lower in “PBM 8-mer E-score” value: 0.0618 for the first, -0.233 for the second.

Going from AAGCTAGA to ATAGCTGA, the “PBM 8-mer E-score” value rises from 0.058 to 0.0649.

Compared with GATTTCCA, AAACCAGG is lower in “PBM 8-mer E-score” value: -0.0348 for the first, -0.173 for the second.

Compared with ACCCTCAC, CATGTTAC is higher in “PBM 8-mer E-score” value: -0.199 for the first, 0.198 for the second.

Compared with GTAGCAAA, CAGTTGCA is lower in “PBM 8-mer E-score” value: 0.116 for the first, -0.00346 for the second.

Compared with CACTCTTC, ATCGGCAT is higher in “PBM 8-mer E-score” value: -0.164 for the first, -0.0898 for the second.

Compared with TAGCGTCA, CCATAGCC is lower in “PBM 8-mer E-score” value: -0.121 for the first, -0.234 for the second.

Compared with CAGCCCCG, CCGGCCGA is higher in “PBM 8-mer E-score” value: -0.27 for the first, -0.0662 for the second.

Compared with CGACAGCC, AAGACATC is higher in “PBM 8-mer E-score” value: -0.107 for the first, -0.0219 for the second.

Going from CACGCAGG to GTTAATGA, the “PBM 8-mer E-score” value rises from -0.323 to 0.264.

Going from ATATAGAT to AACCCACG, the “PBM 8-mer E-score” value falls from 0.35 to -0.111.

First: GTCGTGTA
Second: TCACCCCA
The “PBM 8-mer E-score” value of the first is lower: -0.19 for the first, -0.117 for the second.

Going from AATATCCA to AGTATGAC, the “PBM 8-mer E-score” value falls from 0.198 to 0.145.

Going from AATCCACA to CCGTCAAC, the “PBM 8-mer E-score” value falls from 0.139 to -0.129.

First: AGGTTGGG
Second: CACCCCAG
The “PBM 8-mer E-score” value of the first is higher: -0.167 for the first, -0.333 for the second.

Going from AAAATGTG to CCGTGATA, the “PBM 8-mer E-score” value falls from 0.0752 to 0.0119.

Going from GAGTGGAC to GCGATGAC, the “PBM 8-mer E-score” value falls from -0.101 to -0.136.

Going from CGTGTCCC to GGCCAGGA, the “PBM 8-mer E-score” value falls from -0.138 to -0.183.

First: ACTCATCG
Second: GACAGGAC
The “PBM 8-mer E-score” value of the first is higher: -0.021 for the first, -0.173 for the second.

Compared with CATCTTTC, ACACCCAT is higher in “PBM 8-mer E-score” value: -0.00603 for the first, 0.08 for the second.

Compared with GCTAACGA, AACTTACA is higher in “PBM 8-mer E-score” value: -0.0928 for the first, 0.33 for the second.

Going from CATAAATG to GGGGGATA, the “PBM 8-mer E-score” value falls from 0.112 to -0.0492.

Going from AAATGTCC to AATGGCGT, the “PBM 8-mer E-score” value falls from 0.0297 to 0.00855.

Going from AAATTCCC to GCGCTACA, the “PBM 8-mer E-score” value falls from 0.0738 to -0.0341.

Going from AAGTAAGA to AAGGCACG, the “PBM 8-mer E-score” value falls from 0.247 to -0.189.

First: ATGATTTC
Second: ATCCTGGA
The “PBM 8-mer E-score” value of the first is higher: 0.0574 for the first, 0.0568 for the second.

First: GGTCCATA
Second: CCCCCAGG
The “PBM 8-mer E-score” value of the first is higher: -0.0468 for the first, -0.337 for the second.

Compared with GTGAAACA, GTAGCGAC is lower in “PBM 8-mer E-score” value: 0.218 for the first, -0.12 for the second.
